Data taken from patent US20220411483A1 (Chugai, published 2022).
Residue numbers refer to the chain shown, from its start. Numbers in names are those of the source.

T1: FcγRIIa R type extracellular domain, His tag (human, UniProt P12318 34-217)
T1 construct: extracellular domain; also called FcgRIIaR
T1 sequence (looked up): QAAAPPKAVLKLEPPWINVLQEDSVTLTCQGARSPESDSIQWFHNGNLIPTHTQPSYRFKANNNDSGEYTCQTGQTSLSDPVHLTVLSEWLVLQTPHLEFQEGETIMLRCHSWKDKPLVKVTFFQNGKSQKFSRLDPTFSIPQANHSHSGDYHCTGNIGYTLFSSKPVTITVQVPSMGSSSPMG

T2: FcγRIIa H type extracellular domain, His tag (human, UniProt P12318 34-217)
T2 construct: extracellular domain; also called FcgRIIaH
T2 sequence (looked up): T1 sequence (looked up) with R134H

T3: FcγRIIb extracellular domain, His tag (human, UniProt P31994 43-217)
T3 construct: extracellular domain; also called FcgRIIb
T3 sequence (looked up): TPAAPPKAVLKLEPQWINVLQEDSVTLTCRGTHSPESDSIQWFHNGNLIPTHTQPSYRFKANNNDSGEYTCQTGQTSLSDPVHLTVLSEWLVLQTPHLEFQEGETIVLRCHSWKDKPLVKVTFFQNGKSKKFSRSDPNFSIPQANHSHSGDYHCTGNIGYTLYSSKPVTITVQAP

T4: FcgRIIaR (human, UniProt P12318 34-217)
T4 construct: extracellular domain; also called FcγRIIa R type; FcγRIIa (R type)
T4 sequence (looked up): T1 sequence (looked up)

B1: IL6R-P594/IL6R-L (antibody, human IgG1, kappa)
heavy: QVQLQESGPGLVKPSETLSLTCAVSGHSISHDHAWSWVRQPPGEGLEWIGFISYSGITNYNPSLQGRVTISRDNSKNTLYLQMNSLRAEDTAVYYCARSLARTTAMDYWGEGTLVTVSS[human IgG1 constant region with P238D F241L (EU numbers) not shown]
light: DIQMTQSPSSLSASVGDRVTITCRASQDISSYLNWYQQKPGKAPKLLIYYTSRLHSGVPSRFSGSGSGTDFTFTISSLQPEDIATYYCQQGNTLPYTFGQGTKVEIKRTVAAPSVFIFPPSDEQLKSGTASVVCLLNNFYPREAKVQWKVDNALQSGNSQESVTEQDSKDSTYSLSSTLTLSKADYEKHKVYACEVTHQGLSSPVTKSFNRGEC
B2: IL6R-P597/IL6R-L (antibody, human IgG1, kappa)
heavy: QVQLQESGPGLVKPSETLSLTCAVSGHSISHDHAWSWVRQPPGEGLEWIGFISYSGITNYNPSLQGRVTISRDNSKNTLYLQMNSLRAEDTAVYYCARSLARTTAMDYWGEGTLVTVSS[human IgG1 constant region with P238D Y296H (EU numbers) not shown]
light: B1 light
B3: IL6R-P600/IL6R-L (antibody, human IgG1, kappa)
heavy: QVQLQESGPGLVKPSETLSLTCAVSGHSISHDHAWSWVRQPPGEGLEWIGFISYSGITNYNPSLQGRVTISRDNSKNTLYLQMNSLRAEDTAVYYCARSLARTTAMDYWGEGTLVTVSS[human IgG1 constant region with P238D S298A (EU numbers) not shown]
light: B1 light
B4: IL6R-P719/IL6R-L (antibody, human IgG1, kappa)
heavy: QVQLQESGPGLVKPSETLSLTCAVSGHSISHDHAWSWVRQPPGEGLEWIGFISYSGITNYNPSLQGRVTISRDNSKNTLYLQMNSLRAEDTAVYYCARSLARTTAMDYWGEGTLVTVSS[human IgG1 constant region with P238D S324N (EU numbers) not shown]
light: B1 light
B5: IL6R-P721/IL6R-L (antibody, human IgG1, kappa)
heavy: QVQLQESGPGLVKPSETLSLTCAVSGHSISHDHAWSWVRQPPGEGLEWIGFISYSGITNYNPSLQGRVTISRDNSKNTLYLQMNSLRAEDTAVYYCARSLARTTAMDYWGEGTLVTVSS[human IgG1 constant region with P238D A330H (EU numbers) not shown]
light: B1 light
B6: IL6R-P722/IL6R-L (antibody, human IgG1, kappa)
heavy: QVQLQESGPGLVKPSETLSLTCAVSGHSISHDHAWSWVRQPPGEGLEWIGFISYSGITNYNPSLQGRVTISRDNSKNTLYLQMNSLRAEDTAVYYCARSLARTTAMDYWGEGTLVTVSS[human IgG1 constant region with P238D A330Y (EU numbers) not shown]
light: B1 light
B7: IL6R-P723/IL6R-L (antibody, human IgG1, kappa)
heavy: QVQLQESGPGLVKPSETLSLTCAVSGHSISHDHAWSWVRQPPGEGLEWIGFISYSGITNYNPSLQGRVTISRDNSKNTLYLQMNSLRAEDTAVYYCARSLARTTAMDYWGEGTLVTVSS[human IgG1 constant region with L235F P238D (EU numbers) not shown]
light: B1 light
B8: IL6R-P724/IL6R-L (antibody, human IgG1, kappa)
heavy: QVQLQESGPGLVKPSETLSLTCAVSGHSISHDHAWSWVRQPPGEGLEWIGFISYSGITNYNPSLQGRVTISRDNSKNTLYLQMNSLRAEDTAVYYCARSLARTTAMDYWGEGTLVTVSS[human IgG1 constant region with G237Q P238D (EU numbers) not shown]
light: B1 light
B9: IL6R-P725/IL6R-L (antibody, human IgG1, kappa)
heavy: QVQLQESGPGLVKPSETLSLTCAVSGHSISHDHAWSWVRQPPGEGLEWIGFISYSGITNYNPSLQGRVTISRDNSKNTLYLQMNSLRAEDTAVYYCARSLARTTAMDYWGEGTLVTVSS[human IgG1 constant region with P238D Y296D (EU numbers) not shown]
light: B1 light
B10: IL6R-P742/IL6R-L (antibody, human IgG1, kappa)
heavy: QVQLQESGPGLVKPSETLSLTCAVSGHSISHDHAWSWVRQPPGEGLEWIGFISYSGITNYNPSLQGRVTISRDNSKNTLYLQMNSLRAEDTAVYYCARSLARTTAMDYWGEGTLVTVSS[human IgG1 constant region with P238D K322E (EU numbers) not shown]
light: B1 light
B11: IL6R-G4d/IL6R-L (antibody, human IgG4 S228P, kappa)
heavy: QVQLQESGPGLVKPSETLSLTCAVSGHSISHDHAWSWVRQPPGEGLEWIGFISYSGITNYNPSLQGRVTISRDNSKNTLYLQMNSLRAEDTAVYYCARSLARTTAMDYWGEGTLVTVSSASTKGPSVFPLAPCSRSTSESTAALGCLVKDYFPEPVTVSWNSGALTSGVHTFPAVLQSSGLYSLSSVVTVPSSSLGTKTYTCNVDHKPSNTKVDKRV[human IgG4 Fc with S228P (EU numbers) not shown]
light: B1 light
notes: Human IgG4 with S228P and without C-terminal Gly-Lys

These binders were tested against T5, FcγRIa extracellular domain, His tag (human, UniProt P12314 16-292) (assay: SPR, KD ratio).
T5 construct: whole entry named; also called FcgRIa

Row | Binder | Relative FcgRIa-binding Activity
1 | B1 | 0.0236 fold of IL6R-G1d/IL6R-L
2 | B2 | 0.0194 fold of IL6R-G1d/IL6R-L
3 | B3 | 0.0943 fold of IL6R-G1d/IL6R-L
4 | B4 | 0.0398 fold of IL6R-G1d/IL6R-L
5 | B5 | 0.0183 fold of IL6R-G1d/IL6R-L
6 | B6 | 0.0236 fold of IL6R-G1d/IL6R-L
7 | B7 | 0.0004 fold of IL6R-G1d/IL6R-L
8 | B8 | 0.01 fold of IL6R-G1d/IL6R-L
9 | B9 | 0.0206 fold of IL6R-G1d/IL6R-L

What follows are binders tested against T1, FcγRIIa R type extracellular domain, … (assay: SPR, KD ratio).

Row | Binder | Relative FcgRIIaR-binding Activity
10 | B1 | 0.032 fold of IL6R-G1d/IL6R-L
11 | B2 | 0.048 fold of IL6R-G1d/IL6R-L
12 | B3 | 0.026 fold of IL6R-G1d/IL6R-L
13 | B4 | 0.044 fold of IL6R-G1d/IL6R-L
14 | B5 | 0.044 fold of IL6R-G1d/IL6R-L
15 | B6 | 0.041 fold of IL6R-G1d/IL6R-L
16 | B7 | 0.044 fold of IL6R-G1d/IL6R-L
17 | B8 | 0.031 fold of IL6R-G1d/IL6R-L
18 | B9 | 0.046 fold of IL6R-G1d/IL6R-L

These binders were tested against T2, FcγRIIa H type extracellular domain, … (assay: SPR, KD ratio).

Row | Binder | Relative FcgRIIaH-binding Activity
19 | B1 | 0.009 fold of IL6R-G1d/IL6R-L
20 | B2 | 0.012 fold of IL6R-G1d/IL6R-L
21 | B3 | 0.007 fold of IL6R-G1d/IL6R-L
22 | B4 | 0.012 fold of IL6R-G1d/IL6R-L
23 | B5 | 0.011 fold of IL6R-G1d/IL6R-L
24 | B6 | 0.01 fold of IL6R-G1d/IL6R-L
25 | B7 | 0.011 fold of IL6R-G1d/IL6R-L
26 | B8 | 0.008 fold of IL6R-G1d/IL6R-L
27 | B9 | 0.011 fold of IL6R-G1d/IL6R-L

The binders below were run against T3, FcγRIIb extracellular domain, His tag (assay: SPR, KD ratio).

Row | Binder | Relative FcgRIIb-binding Activity
28 | B1 | 1.77 fold of IL6R-G1d/IL6R-L
29 | B2 | 2.64 fold of IL6R-G1d/IL6R-L
30 | B3 | 1.16 fold of IL6R-G1d/IL6R-L
31 | B4 | 2.36 fold of IL6R-G1d/IL6R-L
32 | B5 | 2.84 fold of IL6R-G1d/IL6R-L
33 | B6 | 1.76 fold of IL6R-G1d/IL6R-L
34 | B7 | 2.45 fold of IL6R-G1d/IL6R-L
35 | B8 | 1.13 fold of IL6R-G1d/IL6R-L
36 | B9 | 2.75 fold of IL6R-G1d/IL6R-L

The binders below were run against T6, FcγRIIIa V type extracellular domain, His tag (human, UniProt P08637 part only) (assay: SPR, KD ratio).
T6 construct: extracellular domain; also called FcgRIIIaV
T6 sequence (P08637 17-208 F176V): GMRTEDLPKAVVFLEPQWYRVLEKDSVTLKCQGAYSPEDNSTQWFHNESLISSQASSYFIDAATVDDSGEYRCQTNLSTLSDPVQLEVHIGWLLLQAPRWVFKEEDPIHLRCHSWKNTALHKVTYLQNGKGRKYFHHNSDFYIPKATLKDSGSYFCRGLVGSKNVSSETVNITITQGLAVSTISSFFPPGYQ

Row | Binder | Relative FcgRIIIaV-binding Activity
37 | B1 | 0.005 fold of IL6R-G1d/IL6R-L
38 | B2 | 0.008 fold of IL6R-G1d/IL6R-L
39 | B3 | 0.006 fold of IL6R-G1d/IL6R-L
40 | B4 | 0.006 fold of IL6R-G1d/IL6R-L
41 | B5 | 0.006 fold of IL6R-G1d/IL6R-L
42 | B6 | 0.007 fold of IL6R-G1d/IL6R-L
43 | B7 | 0.009 fold of IL6R-G1d/IL6R-L
44 | B8 | 0.007 fold of IL6R-G1d/IL6R-L
45 | B9 | 0.008 fold of IL6R-G1d/IL6R-L

What follows are binders tested against T5, FcγRIa extracellular domain, His tag (assay: SPR kinetics, antibody captured).
T5 sequence (P12314 16-292): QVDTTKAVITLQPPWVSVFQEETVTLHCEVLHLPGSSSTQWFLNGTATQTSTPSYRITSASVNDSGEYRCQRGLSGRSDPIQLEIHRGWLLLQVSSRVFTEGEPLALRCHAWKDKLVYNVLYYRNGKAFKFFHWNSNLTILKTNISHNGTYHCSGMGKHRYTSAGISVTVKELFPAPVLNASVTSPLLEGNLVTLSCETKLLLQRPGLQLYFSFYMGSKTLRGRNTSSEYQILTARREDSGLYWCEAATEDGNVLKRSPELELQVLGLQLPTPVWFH

Row | Binder | Kd [nM]
46 | B1 | 14
47 | B2 | 17
48 | B3 | 3.5
49 | B4 | 8.3
50 | B5 | 18
51 | B6 | 14
52 | B7 | 860
53 | B8 | 33
54 | B9 | 16

Each binder was assayed against T3, FcγRIIb extracellular domain, His tag (assay: SPR kinetics, antibody captured).

Row | Binder | Kd [nM]
55 | B1 | 2900
56 | B2 | 2000
57 | B3 | 4400
58 | B4 | 2200
59 | B5 | 1800
60 | B6 | 2900
61 | B7 | 2100
62 | B8 | 4600
63 | B9 | 1900

Each binder was assayed against T1, FcγRIIa R type extracellular domain, … (assay: SPR, bound amount per captured antibody).

Row | Binder | Relative FcgRIIaR-binding Activity
64 | B1 | 19.8 % of IL6R-G1d/IL6R-L
65 | B2 | 27.3 % of IL6R-G1d/IL6R-L
66 | B3 | 16.5 % of IL6R-G1d/IL6R-L
67 | B4 | 24 % of IL6R-G1d/IL6R-L
68 | B5 | 24.1 % of IL6R-G1d/IL6R-L
69 | B6 | 22.5 % of IL6R-G1d/IL6R-L
70 | B7 | 24 % of IL6R-G1d/IL6R-L
71 | B8 | 17.8 % of IL6R-G1d/IL6R-L
72 | B9 | 24.5 % of IL6R-G1d/IL6R-L

These binders were tested against T3, FcγRIIb extracellular domain, His tag (assay: SPR, bound amount per captured antibody).

Row | Binder | Relative FcgRIIb-binding Activity
73 | B1 | 111 % of IL6R-G1d/IL6R-L
74 | B2 | 140 % of IL6R-G1d/IL6R-L
75 | B3 | 112 % of IL6R-G1d/IL6R-L
76 | B4 | 130 % of IL6R-G1d/IL6R-L
77 | B5 | 140 % of IL6R-G1d/IL6R-L
78 | B6 | 130 % of IL6R-G1d/IL6R-L
79 | B7 | 128 % of IL6R-G1d/IL6R-L
80 | B8 | 101 % of IL6R-G1d/IL6R-L
81 | B9 | 136 % of IL6R-G1d/IL6R-L

Each binder was assayed against T4, FcgRIIaR (assay: SPR, amount bound per captured antibody).

Row | Binder | Relative FcgRIIaR-binding Activity [IL6R-G1d/IL6R-L=100]
82 | B10 | 26.6

The binders below were run against T7, human complement C1q (human, UniProt P02745; P02746; P02747) (assay: SPR, C1q bound per antibody captured on Protein L).
T7 construct: Bought (PROSPEC or Calbiochem); also called human C1q
T7 sequence (P02745 23-245 limits assumed, chain 1 of 3): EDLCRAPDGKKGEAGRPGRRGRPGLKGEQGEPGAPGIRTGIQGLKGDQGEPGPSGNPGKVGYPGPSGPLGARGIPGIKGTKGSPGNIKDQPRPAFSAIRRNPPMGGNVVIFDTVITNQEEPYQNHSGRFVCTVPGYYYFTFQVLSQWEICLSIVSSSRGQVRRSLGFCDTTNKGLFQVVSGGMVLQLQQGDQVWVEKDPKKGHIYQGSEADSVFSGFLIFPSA
T7 sequence (P02746 28-253 limits assumed, chain 2 of 3, further chain): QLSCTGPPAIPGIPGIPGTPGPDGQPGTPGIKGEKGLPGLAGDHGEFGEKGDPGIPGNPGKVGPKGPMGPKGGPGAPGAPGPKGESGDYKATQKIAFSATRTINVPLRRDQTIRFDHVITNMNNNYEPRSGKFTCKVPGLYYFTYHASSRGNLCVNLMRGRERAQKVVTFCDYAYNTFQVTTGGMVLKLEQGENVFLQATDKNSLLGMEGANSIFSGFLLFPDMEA
T7 sequence (P02747 29-245 limits assumed, chain 3 of 3, further chain): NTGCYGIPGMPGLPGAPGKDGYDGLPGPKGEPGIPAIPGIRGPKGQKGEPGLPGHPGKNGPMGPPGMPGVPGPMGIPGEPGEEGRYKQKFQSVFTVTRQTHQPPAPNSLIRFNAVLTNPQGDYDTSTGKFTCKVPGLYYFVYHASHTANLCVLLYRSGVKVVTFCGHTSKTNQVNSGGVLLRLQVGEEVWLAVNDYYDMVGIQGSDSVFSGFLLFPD
Protocol: The interaction between an antibody and human C1q was analyzed using Biacore T200 (GE Healthcare). HBS-EP+ (GE Healthcare) was used as the running buffer, and the measurement temperature was set at 25° C. Chips produced by immobilizing Protein L (ACTIGEN or BioVision) onto Series S sensor Chip CM4 (GE Healthcare) by amine coupling were used.
The antibodies of interest were captured onto these sensor chips, and allowed to interact with human complement C1q (PROSPEC or Calbiochem) diluted in the running buffer. The amount of antibody binding was determined, and comparisons were made among the antibodies. However, since the amount of C1q bound depends on the amount of captured antibodies, corrected values obtained by dividing the amount of C1q bound by the amount of each antibody captured were compared. Furthermore, by reaction with 10 mM glycine-HCl, pH 1.5, the antibodies captured onto the sensor chips were washed, and the sensor chips were recycled and reused.

Row | Binder | Amount of C1q-binding when that for G1d is Defined as 100 [G1d=100]
83 | B10 | 14.1
84 | B11 | 15.5
